Laboratory results taken from paper PMC4336329 (PLoS ONE, 2015).
The whole screen tested about 310,000 compounds, of which about 2,200 (0.71%) showed an effect of 50% or more. Effects have a minus sign here. The list shows a part of the results.

These compounds were tested against human ether-à-go-go-related gene (hERG) potassium channel (human, UniProt Q12809) (assay: primary screen, population patch clamp on CHO cells stably expressing hERG).
human ether-à-go-go-related gene (hERG) potassium channel, sequence (Q12809 whole entry, looked up): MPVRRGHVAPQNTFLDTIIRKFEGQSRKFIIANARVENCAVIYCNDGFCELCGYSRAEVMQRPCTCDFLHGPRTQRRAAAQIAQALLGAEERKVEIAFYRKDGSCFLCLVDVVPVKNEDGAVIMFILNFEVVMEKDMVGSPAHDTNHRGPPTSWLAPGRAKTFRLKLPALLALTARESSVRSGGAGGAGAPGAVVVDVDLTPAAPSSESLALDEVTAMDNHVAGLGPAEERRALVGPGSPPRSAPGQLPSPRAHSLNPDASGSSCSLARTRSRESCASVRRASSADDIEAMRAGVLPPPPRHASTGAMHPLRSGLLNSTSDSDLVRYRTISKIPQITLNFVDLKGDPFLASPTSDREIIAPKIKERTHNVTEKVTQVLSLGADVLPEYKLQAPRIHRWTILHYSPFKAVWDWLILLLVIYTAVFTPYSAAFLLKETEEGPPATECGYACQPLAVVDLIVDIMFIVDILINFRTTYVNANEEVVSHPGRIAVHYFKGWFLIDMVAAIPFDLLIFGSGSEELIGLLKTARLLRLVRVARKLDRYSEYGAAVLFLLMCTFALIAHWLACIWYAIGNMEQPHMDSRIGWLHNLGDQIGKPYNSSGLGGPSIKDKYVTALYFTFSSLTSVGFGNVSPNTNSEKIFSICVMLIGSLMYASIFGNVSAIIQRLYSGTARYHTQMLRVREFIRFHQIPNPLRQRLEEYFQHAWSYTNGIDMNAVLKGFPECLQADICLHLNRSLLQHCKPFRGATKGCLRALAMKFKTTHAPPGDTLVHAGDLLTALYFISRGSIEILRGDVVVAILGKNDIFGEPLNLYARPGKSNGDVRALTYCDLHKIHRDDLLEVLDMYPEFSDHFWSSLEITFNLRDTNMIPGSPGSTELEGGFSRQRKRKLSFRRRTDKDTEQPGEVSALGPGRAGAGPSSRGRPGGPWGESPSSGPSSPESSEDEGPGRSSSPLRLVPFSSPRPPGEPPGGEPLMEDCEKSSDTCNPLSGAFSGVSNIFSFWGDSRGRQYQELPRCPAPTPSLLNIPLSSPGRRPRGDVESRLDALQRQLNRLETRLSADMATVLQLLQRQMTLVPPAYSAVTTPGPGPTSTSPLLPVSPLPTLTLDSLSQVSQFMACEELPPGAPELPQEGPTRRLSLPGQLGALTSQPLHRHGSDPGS

Row | SMILES | hERG current change (%, negative = inhibition) at 1uM [%]
1 | CC1CCCN(c2nc3c(c(=O)[nH]c(=O)n3C)n2Cc2ccccc2Cl)C1 (centres unmarked) | 7.46
2 | Cc1ccc(-c2noc(CN(C(=O)Cc3ccccc3)C(C)C)n2)cc1 | 1.11
3 | O=C(COc1ccc(C(=O)Nc2ccc(Cl)cc2)cc1)NCc1ccccc1 | 9.6
4 | O=c1c2sccc2n(Cc2cc(=O)n3ccccc3n2)c(=O)n1-c1ccccc1 | 11.6
5 | CNc1nc(Sc2cccc(C(F)(F)F)c2)cc(C(F)(F)F)n1 | 22.1
6 | COc1ccc(CNC(=O)C2CCCN(C(=O)Nc3ccccc3OC)C2)cc1 (centres unmarked) | 9.25
7 | N#C/C(=C\c1cc(O)c(O)c(O)c1)C(N)=O | 4.39
8 | CC(=O)NC(CC(=O)Nc1ccc(S(=O)(=O)N2CCCC2)cc1)c1ccccc1 (centres unmarked) | 11.8
9 | COC(=O)c1cccc(-n2[nH]nnc2=S)c1 | 12.9
10 | O=C(N/N=C\c1cccs1)c1ccccc1-n1cccc1 | 7.51
11 | COC(=O)Cn1c(C)c(C#N)c2ccccc21 | 10.4
12 | Nn1c(SCc2nc3ccccn3c2Br)nnc1-c1cccnc1 | 8.47
13 | CN(C)C(=O)c1cn(-c2ccccc2)nc1-c1cccc([N+](=O)[O-])c1 | 2.16
14 | CCOC(=O)C1=C(C)NC(C)=C(C(=O)OCC)C1C(=O)OCC(=O)N1c2ccccc2CC1C (centres unmarked) | 0.873
15 | O=c1c(O)cccc2cc(O)c(O)c(O)c12 | 15.8
16 | CC(=O)N1CCN(C(=S)Nc2cc(S(=O)(=O)N3CCOCC3)ccc2Cl)CC1 | 12.4
17 | CN1CCN(C(=O)c2ccccc2NC(=O)COc2ccccc2Cl)CC1 | 4.18
18 | CC(C)(C)NC1=CC(=O)OC12CCCCC2 | 6.58
19 | CN1C(=O)c2ccccc2N(C)C1c1ccc2c(c1)OCO2 (centres unmarked) | 8.33
20 | Cc1ccc(C(=O)NNC(=O)Cc2csc(-c3csc(C)n3)n2)cc1 | 15.8
21 | Cc1cccc2c(CCNC(=O)c3ccc([N+](=O)[O-])cc3)c[nH]c12 | 14.7
22 | Br.C=CCn1c(=N)n(CC(=O)c2ccccc2)c2ccccc21 | -0.707

Row | SMILES | hERG current change (%, negative = inhibition) at 1uM [%]
23 | Cc1ccccc1Nc1nc(N)nc(COC(=O)c2cccc(S(=O)(=O)NCc3ccccc3)c2)n1 | 9.64
24 | CCCN1C(=O)SC(CC(=O)Nc2ccccc2)C1=O (centres unmarked) | 8.6
25 | Cc1cc(=O)oc2cc(OCCCC[n+]3ccccc3)ccc12.[Br-] | 7.97
26 | CS(=O)(=O)c1ccc2nc(NC(=O)c3ccc(N4C(=O)CCC4=O)cc3)sc2c1 | 11.8
27 | COc1ccc2nc(NC(=O)CSc3nnnn3C)sc2c1 | 12.5
28 | COc1ccc(NC2CCCN(C(=O)c3csc(C(C)C)n3)C2)cc1OC (centres unmarked) | 9.41
29 | O=C(NCCNC(=O)c1ccccc1F)c1ccccn1 | 11.9
30 | Cc1ccc(S(=O)(=O)CCC(=O)NC2CCCC2)cc1 | 12.1
31 | Cc1ccc(NC(=O)CN(C)S(=O)(=O)c2cccc3cccnc23)cc1 | -0.451
32 | CCCCCCCCN1[C@@H](CC(=O)OCC)c2cc(C(F)(F)F)ccc2S1(=O)=O | -10.6
33 | CCN(CC(=O)Nc1ccccc1C(F)(F)F)C(=O)c1ccccc1SCC(=O)N1CCCC1 | 4.48
34 | CN(C)S(=O)(=O)c1ccc2nnn(O)c2c1 | 7.89
35 | CC1Cc2ccccc2N1S(=O)(=O)c1ccc(Cl)nc1 (centres unmarked) | 9.77
36 | O=C(CSc1nc2ccccc2nc1N1CCOCC1)N1CCN(c2ccccc2)CC1 | 6.99
37 | CN1/C(=C\C=C(/C#N)C(=O)Nc2ccc(Cl)cc2)C(C)(C)c2ccccc21 | 17.6
38 | COc1ccc2[nH]c(=O)c(CN(C(=O)c3cccnc3)c3ccccc3)cc2c1 | 16.1
39 | COc1ccccc1N(C)C(=O)c1cc(S(=O)(=O)N2CCc3ccccc32)cn1C | 1.85
40 | Cc1cccc(CS(=O)(=O)c2ncc(Cl)c(C(=O)Nc3c(C)cccc3C)n2)c1 | 9.51
41 | COc1ccccc1-c1cc(C(=O)N2CCN(c3ccccc3)CC2)no1 | 5.04
42 | CC(C)CC(=O)NC(=S)Nc1nc(-c2ccccc2)cs1 | 15.9
43 | COc1cc(NC(=O)c2ccc(Cl)cc2Cl)ccc1NC(=O)c1cccs1 | 12.3
44 | CCn1cc(C(=O)N2CCOCC2)c(=O)c2cc(S(=O)(=O)N(C)C3CCCCC3)ccc21 | 13.6
